According to publication PMC12136788:
This is one part of the list.

T1: UNK ZnF1-6 (called full-length) (human, UniProt Q9C0B0 30-357)
T1 sequence: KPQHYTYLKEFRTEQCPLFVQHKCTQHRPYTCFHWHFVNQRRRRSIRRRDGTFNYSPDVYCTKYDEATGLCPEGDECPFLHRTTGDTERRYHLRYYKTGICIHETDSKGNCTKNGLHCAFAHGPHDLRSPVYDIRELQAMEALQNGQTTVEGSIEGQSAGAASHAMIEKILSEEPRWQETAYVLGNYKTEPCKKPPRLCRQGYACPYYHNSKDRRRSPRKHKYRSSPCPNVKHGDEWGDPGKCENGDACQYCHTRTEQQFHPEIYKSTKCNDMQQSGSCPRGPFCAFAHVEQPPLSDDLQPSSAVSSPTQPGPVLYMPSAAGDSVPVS

B1: chr1:180885316:180885399:+|3pUTR|ENSG00000143324|msi1_unk|FALSE|overlapping (ssRNA)
RNA: GGGAGUUCUACAGUCCGACGAUCUUGGCAGCCAUUUCUCCCAGCAGUUUUAAAGGAUGAACAUUGGAUUUCAUGCCAUCCCAUAGAAAACCUGUUUUAAAAUUUUAGGGAUCUUUACUUGGUCAUACAUGAAAAGUACACUGCCAACAGAGGAUUGAGCAUCA
B2: chr4:4235611:4235720:-|3pUTR|ENSG00000132406|unk|total|mutant (ssRNA)
RNA: GGGAGUUCUACAGUCCGACGAUCAUGACCGUUUUGUCCGGUGACAGGACCAAAUGAAAAUAUUUUAUGUUUUCUCAUCACUUCCGAUUUUAUCAUUAUGUACAUUACUGGGUUUUCCGCAUUUCCUAAUGUGAAGUUUUAAUCCAACAGAGGAUUGAGCAUCA
B3: chr11:113738268:113738383:-|CDS|ENSG00000086827|unk|FALSE|unique (ssRNA)
RNA: GGGAGUUCUACAGUCCGACGAUCUGCUUUUUGGCCCAAAUGCGGGCACAGAAAGGUGAACUUCUGGAAAGAUUAUCAAGUGCUAGGAACUUUUCAAAUAUGGACGAUGAAGAGAAUUAUUCUGCAGCAAGUAAAGCAGUCCGGCAACAGAGGAUUGAGCAUCA
B4: chr19:44386474:44388102:-|CDS|ENSG00000267508|control|control|control (ssRNA)
RNA: GGGAGUUCUACAGUCCGACGAUCGGCAUGUGGUAAGGGCUUCAGUCGUAAUUCAUACCUCCUUGCCCAUCAGAGAGUGCAUAUAGAUGAGACACAGUACACACACUGUGAGCGUGGAAAGGACCUUCUGACUCAUCAAAGACUCAACAGAGGAUUGAGCAUCA
B5: chr2:111862450:111862553:-|CDS|ENSG00000153107|unk|total|mutant (ssRNA)
RNA: GGGAGUUCUACAGUCCGACGAUCUCUUUUUCAGGGGUGCAAAGGUUCAACAUUUCAAGCCAUAAUCAGUCUCCAAAGAGACACCGUAUUUCUCAUUCUCCAAACCGUAAUUCUAAUGGCUCCUUUCUUGCACCAGAAACGGAGCAACAGAGGAUUGAGCAUCA
B6: chr10:73917138:73917420:+|3pUTR|ENSG00000122861|msi1|FALSE|unique (ssRNA)
RNA: GGGAGUUCUACAGUCCGACGAUCGGAAUGUAUUAUUCUGCAGCAUGACCUGUGACCAGCACUGUCUCAGUUUCACUUUCACAUAGAUGUCCCUUUCUUGGCCAGUUAUCCCUUCCUUUUAGCCUAGUUCAUCCAAUCCUCACUCAACAGAGGAUUGAGCAUCA

Target: T1, UNK ZnF1-6 (called full-length)
Experiment: nsRBNS (natural sequence RNA bind-n-seq); RBNS binding buffer (assumed for nsRBNS): 25 mM Tris pH 7.5, 150 mM KCl, 3 mM MgCl2, 0.01% Triton X-100, 500 ug/ml BSA, 20 U/ml SUPERase-In, 4 C; UNK is unkempt and MSI1 is Musashi-1; names of the RNAs are library labels; protein concentration not given here; high values mean tight binding

Binder | binding signal [enrichment R]
B1 | 1.91
B2 | 0.866
B3 | 0.616
B4 | 0.503
B5 | 0.417
B6 | 1.54
